# Some of the results follow. Values were computed here from the reads of four pooled replicates and scatter widely.
# Molecular target: T1, Pho4 (S. cerevisiae) (UniProt P07270)
# T1 sequence: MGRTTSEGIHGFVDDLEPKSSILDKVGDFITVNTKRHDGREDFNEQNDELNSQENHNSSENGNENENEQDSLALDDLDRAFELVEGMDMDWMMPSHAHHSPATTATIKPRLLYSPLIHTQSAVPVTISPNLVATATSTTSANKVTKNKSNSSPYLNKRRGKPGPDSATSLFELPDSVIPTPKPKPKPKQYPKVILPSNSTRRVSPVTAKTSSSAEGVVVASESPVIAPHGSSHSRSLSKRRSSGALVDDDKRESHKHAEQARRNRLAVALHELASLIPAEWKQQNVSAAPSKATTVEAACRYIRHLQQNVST
# Experiment: relative binding free energy (BET-seq); higher = weaker binding
# Settings: reference: library average
row,Sequence,relative binding free energy
1,GAAGTCACGTGTGCGT,0.04 kcal/mol
2,GTTATCACGTGGCGGC,0.12 kcal/mol
3,TTTTGCACGTGTATTC,0.15 kcal/mol
4,CGAGTCACGTGGGTGG,-0.01 kcal/mol
5,TAGGGCACGTGCGTTT,-0.22 kcal/mol
6,GGAGTCACGTGGGAGT,0 kcal/mol
7,GGAATCACGTGGTAGG,0.19 kcal/mol
8,TCCTGCACGTGAGGTG,0.29 kcal/mol
9,TGTAACACGTGTGTGA,-0.05 kcal/mol
10,GTGTGCACGTGATTGA,0.26 kcal/mol
11,TGGATCACGTGTGCGA,0.02 kcal/mol
12,TTAGGCACGTGTTCTG,-0.24 kcal/mol
13,CGGGCCACGTGTGTGT,-0.23 kcal/mol
14,CATGGCACGTGCGGTG,-0.27 kcal/mol
15,ATTAGCACGTGCAGTA,-0.12 kcal/mol
16,TATTGCACGTGCTTAT,-0.07 kcal/mol
17,TTGTTCACGTGAATGT,0.37 kcal/mol
18,GGGAGCACGTGGGTAA,-0.21 kcal/mol
19,AGGTACACGTGTGCTA,0.1 kcal/mol
20,TTGTACACGTGGCAGT,-0.13 kcal/mol
21,CTATACACGTGTTTGG,-0.06 kcal/mol
22,AGGTGCACGTGTAGAA,-0.11 kcal/mol
23,TGTTCCACGTGCGGGT,0.07 kcal/mol
24,GATGTCACGTGATTAG,0.4 kcal/mol
25,TATGTCACGTGCGTAG,0 kcal/mol
26,TTTCACACGTGTTTAG,0.08 kcal/mol

row,Sequence,relative binding free energy
1,GTGTGCACGTGCGAAG,-0.01 kcal/mol
2,TATATCACGTGTGTAA,0.21 kcal/mol
3,GGTTACACGTGTATAA,0.31 kcal/mol
4,GCGGTCACGTGAATGT,0.35 kcal/mol
5,TGAGTCACGTGATGGG,0.27 kcal/mol
6,TCTGTCACGTGGTGAA,0.04 kcal/mol
7,AAATCCACGTGTGGTG,0.17 kcal/mol
8,GATGACACGTGGGTCG,-0.16 kcal/mol
9,TAGAGCACGTGTAGGG,-0.15 kcal/mol
10,TGAAGCACGTGGTGGT,0.02 kcal/mol
11,TTTGACACGTGTCAGG,-0.03 kcal/mol
12,TGTCTCACGTGTTCAT,0.24 kcal/mol
13,GGCTTCACGTGTTCTG,0.2 kcal/mol
14,CGGGGCACGTGTGCGC,-0.18 kcal/mol
15,GTATTCACGTGCAGTT,0.21 kcal/mol
16,GTGGGCACGTGGAACA,0 kcal/mol
17,TTGAGCACGTGTTTAT,-0.07 kcal/mol
18,TTCGGCACGTGCGGAG,-0.04 kcal/mol
19,TATGTCACGTGGCAGG,-0.04 kcal/mol
20,TTATGCACGTGTTACT,-0.14 kcal/mol
21,GGGTTCACGTGTGACT,0.42 kcal/mol
22,GTTCGCACGTGGCGGG,0 kcal/mol
23,ACTCGCACGTGTTTGT,0.01 kcal/mol
24,TATGGCACGTGACTTG,0.09 kcal/mol
25,CTGGTCACGTGCTGAG,0.2 kcal/mol
26,TGAGGCACGTGGTCGA,-0.14 kcal/mol

row,Sequence,relative binding free energy
1,AGCGGCACGTGGGTTT,-0.11 kcal/mol
2,TGCTACACGTGGCTGG,0.15 kcal/mol
3,TGTGGCACGTGACAGG,-0.01 kcal/mol
4,TGGAGCACGTGTGGCT,-0.07 kcal/mol
5,TCCAACACGTGGGGGT,-0.03 kcal/mol
6,GTTTTCACGTGGGCTC,0.35 kcal/mol
7,GTGTTCACGTGCGCGG,0.21 kcal/mol
8,CTAGTCACGTGTGGAT,-0.03 kcal/mol
9,GCGTGCACGTGGGTTG,-0.12 kcal/mol
10,GTTTACACGTGATTTT,0.27 kcal/mol
11,GTTGACACGTGGCTGT,0.05 kcal/mol
12,GTGCGCACGTGTACGG,-0.02 kcal/mol
13,GTTACCACGTGAGGAT,0.33 kcal/mol
14,AGTTACACGTGTTTTA,0.15 kcal/mol
15,ATGAACACGTGATTTT,0.14 kcal/mol
16,TTTGTCACGTGGCGGG,0.13 kcal/mol
17,CGGCACACGTGGAGGG,-0.06 kcal/mol
18,ATAGTCACGTGAAGGG,0.36 kcal/mol
19,TAGCGCACGTGGTTAT,-0.17 kcal/mol
20,GGTTTCACGTGGCCGT,0.34 kcal/mol
21,GACGTCACGTGGTATT,0.29 kcal/mol
22,TTTCACACGTGATTTT,0.29 kcal/mol
23,TGCAGCACGTGAGTGG,0.1 kcal/mol
24,GGAGCCACGTGTGGGT,0.07 kcal/mol
25,AGTAGCACGTGTGTAG,-0.1 kcal/mol
26,AAGTTCACGTGGCGTA,0.33 kcal/mol

row,Sequence,relative binding free energy
1,AATTGCACGTGTGTAT,-0.01 kcal/mol
2,AGATACACGTGATTGT,0.02 kcal/mol
3,TTATACACGTGGGGTG,-0.23 kcal/mol
4,GTTATCACGTGCTGGC,0.25 kcal/mol
5,ACGTTCACGTGTAAGT,0.27 kcal/mol
6,GTGGGCACGTGATCTG,0.1 kcal/mol
7,GTGTACACGTGGCGAA,0.02 kcal/mol
8,ATGGGCACGTGGTAGA,-0.2 kcal/mol
9,AAAGTCACGTGTTGTG,0.15 kcal/mol
10,TGTATCACGTGGCGAA,0.04 kcal/mol
11,TTAGTCACGTGGCTAA,-0.07 kcal/mol
12,TGGGCCACGTGTGGCT,-0.09 kcal/mol
13,TGCGGCACGTGCGGTA,-0.18 kcal/mol
14,TTGTGCACGTGGTGCT,-0.04 kcal/mol
15,ACTGGCACGTGGGATA,-0.27 kcal/mol
16,CTTAGCACGTGGTTTA,-0.13 kcal/mol
17,TGGTGCACGTGGGTTG,-0.11 kcal/mol
18,ACGGGCACGTGTGAGG,-0.11 kcal/mol
19,AGATGCACGTGTTAGG,0.03 kcal/mol
20,AAAGTCACGTGAAAGG,0.4 kcal/mol
21,AGGTGCACGTGGAGTA,-0.07 kcal/mol
22,TATTGCACGTGGAGTG,0.02 kcal/mol
23,TCACTCACGTGTGGTG,0.31 kcal/mol
24,AGTTTCACGTGCATTA,0.2 kcal/mol
25,GTATGCACGTGATTTC,0.23 kcal/mol
26,GAAGGCACGTGAGGGA,0.01 kcal/mol

row,Sequence,relative binding free energy
1,TATGACACGTGGATGG,-0.08 kcal/mol
2,GAAGGCACGTGGTGTA,-0.15 kcal/mol
3,GTGTGCACGTGGTAGA,-0.05 kcal/mol
4,GTGTCCACGTGTGTCG,0.07 kcal/mol
5,ATTAGCACGTGAGTGG,0.15 kcal/mol
6,GGGACCACGTGGAGGG,-0.08 kcal/mol
7,CTTAGCACGTGGGTAT,-0.22 kcal/mol
8,TATGGCACGTGGTTCT,-0.08 kcal/mol
9,TCTGACACGTGATTGT,0.11 kcal/mol
10,GGTAGCACGTGAGCAG,0.24 kcal/mol
11,CTCGTCACGTGAGTTG,0.47 kcal/mol
12,GGAGTCACGTGTGATC,0.25 kcal/mol
13,TGAGGCACGTGTTTTC,-0.07 kcal/mol
14,ATAAACACGTGGTTGA,-0.01 kcal/mol
15,AGGGTCACGTGCGATG,0.19 kcal/mol
16,GTTTGCACGTGTTAGG,0.14 kcal/mol
17,GATTTCACGTGTGAGT,0.51 kcal/mol
18,TTTATCACGTGAGCTG,0.21 kcal/mol
19,ATTCGCACGTGGGATA,-0.16 kcal/mol
20,AAGGGCACGTGTTGCG,-0.16 kcal/mol
21,TGCGGCACGTGTAATG,0.06 kcal/mol
22,AGTGACACGTGCTTTT,-0.13 kcal/mol
23,GTCTACACGTGGTGGT,0.14 kcal/mol
24,AATCACACGTGTTGTT,0.16 kcal/mol
25,TTTGTCACGTGCAGAC,0.18 kcal/mol
26,GGTTTCACGTGTGCGT,0.27 kcal/mol

row,Sequence,relative binding free energy
1,ACGTGCACGTGGTATA,-0.1 kcal/mol
2,ATTGACACGTGTGAGG,-0.15 kcal/mol
3,GTCGCCACGTGGAGGT,0.03 kcal/mol
4,TAGTACACGTGGTCAG,-0.03 kcal/mol
5,GAAAGCACGTGTCGGG,0.06 kcal/mol
6,GGTATCACGTGGTGCG,0.08 kcal/mol
7,TCGTTCACGTGGCGGT,0.27 kcal/mol
8,TAAAACACGTGGGGGC,0.04 kcal/mol
9,TGATGCACGTGTATTA,0.03 kcal/mol
10,ATATGCACGTGTGATA,0.05 kcal/mol
11,GTGTGCACGTGCTGTT,0.06 kcal/mol
12,CTGGTCACGTGTAGTT,0.19 kcal/mol
13,ATCTACACGTGGGTAG,0.04 kcal/mol
14,GCTGGCACGTGTTGCT,-0.02 kcal/mol
15,TTTGTCACGTGGCTTA,-0.1 kcal/mol
16,CTAATCACGTGTCGGT,0.34 kcal/mol
17,AGTTGCACGTGTGGAA,-0.01 kcal/mol
18,AATTACACGTGTGGAA,0.2 kcal/mol
19,TATATCACGTGGTGTA,0.1 kcal/mol
20,GATTGCACGTGGGGAT,-0.02 kcal/mol
21,TTGTGCACGTGTTTTC,0.07 kcal/mol
22,GTGATCACGTGCTGTT,-0.01 kcal/mol
23,GAATGCACGTGAACGG,0.45 kcal/mol
24,GAAGGCACGTGTGGTA,0.05 kcal/mol
25,TGTCGCACGTGGTAGT,-0.12 kcal/mol
26,TGAGGCACGTGTGTGC,-0.15 kcal/mol

row,Sequence,relative binding free energy
1,TCGTTCACGTGTGCGG,0.23 kcal/mol
2,TCTGTCACGTGGTTGC,0.01 kcal/mol
3,TTTGTCACGTGATTAA,0.19 kcal/mol
4,CAGAGCACGTGGAGTT,0.04 kcal/mol
5,AGTTGCACGTGGGCTG,-0.05 kcal/mol
6,TAAGTCACGTGGGGCT,-0.09 kcal/mol
7,GTGTGCACGTGAGATA,0.38 kcal/mol
8,CGTAGCACGTGTGCAG,-0.05 kcal/mol
9,GGGAACACGTGTTGGT,0.13 kcal/mol
10,CTTTGCACGTGTTTTA,0.07 kcal/mol
11,TTGTACACGTGATTAT,0 kcal/mol
12,GCGGTCACGTGTACGT,0.22 kcal/mol
13,ATGGACACGTGTATGG,-0.06 kcal/mol
14,CTTAGCACGTGTATTG,-0.1 kcal/mol
15,TTTTTCACGTGGGAAG,0.27 kcal/mol
16,TTAGGCACGTGGGACA,-0.26 kcal/mol
17,GGTGGCACGTGATTAT,0.06 kcal/mol
18,TCTGACACGTGTTGTG,-0.12 kcal/mol
19,TAAGACACGTGGTATT,-0.1 kcal/mol
20,TTTTGCACGTGAGGGC,0.23 kcal/mol
21,ATTTTCACGTGATTCG,0.08 kcal/mol
22,TGGGTCACGTGGGGTT,0.02 kcal/mol
23,GGTGCCACGTGAGTAT,0.13 kcal/mol
24,GGGGGCACGTGTTGAT,0.06 kcal/mol
25,GGGGTCACGTGGGGGT,0.03 kcal/mol
26,TGTAGCACGTGAAGCT,0.15 kcal/mol

row,Sequence,relative binding free energy
1,GTTAGCACGTGATTGG,0.17 kcal/mol
2,GACGGCACGTGGTATT,-0.07 kcal/mol
3,GTTGGCACGTGGCGAA,-0.04 kcal/mol
4,AGGCTCACGTGTATTG,0.26 kcal/mol
5,GGTGACACGTGTACGT,0.09 kcal/mol
6,TATATCACGTGAGTGA,0.25 kcal/mol
7,GAATGCACGTGTGTTT,0.17 kcal/mol
8,AACAGCACGTGTTGGG,-0.06 kcal/mol
9,GACGTCACGTGATTGT,0.35 kcal/mol
10,GCGGGCACGTGCATGT,-0.16 kcal/mol
11,AATTACACGTGTATGT,0.02 kcal/mol
12,AGCTGCACGTGATTGG,0.01 kcal/mol
13,TTACACACGTGGGATG,-0.1 kcal/mol
14,GTATTCACGTGGCAAT,0.29 kcal/mol
15,TGGTACACGTGAGGGG,0.27 kcal/mol
16,AGTGTCACGTGCAGTA,-0.12 kcal/mol
17,AGTGGCACGTGTCGGC,0.05 kcal/mol
18,TTGGTCACGTGGCGAT,-0.01 kcal/mol
19,GTATACACGTGTCAGT,0.13 kcal/mol
20,GGGGGCACGTGCTGTT,-0.16 kcal/mol
21,TTTTGCACGTGAGGAT,0.11 kcal/mol
22,TTTTTCACGTGGGGGG,0.39 kcal/mol
23,TCCGGCACGTGTGGAG,0 kcal/mol
24,ACTGTCACGTGTGGGA,0.14 kcal/mol
25,TGGCACACGTGGTATA,0.05 kcal/mol
26,AATAGCACGTGGCAGT,-0.08 kcal/mol

row,Sequence,relative binding free energy
1,TTTAACACGTGGCGTC,0.03 kcal/mol
2,TCATGCACGTGTAGGA,0 kcal/mol
3,TAAGACACGTGGGTGC,-0.08 kcal/mol
4,TGGCGCACGTGGGCAG,-0.21 kcal/mol
5,AACTTCACGTGTTGTT,0.28 kcal/mol
6,GCTGTCACGTGGGTGC,-0.09 kcal/mol
7,AGTATCACGTGATGAT,0.17 kcal/mol
8,GTTCGCACGTGCGTTG,0.03 kcal/mol
9,TGACTCACGTGAGTAT,0.45 kcal/mol
10,AGGGTCACGTGCTGGC,-0.01 kcal/mol
11,TAAAACACGTGGGTTT,-0.15 kcal/mol
12,AAGGTCACGTGGATCG,0.05 kcal/mol
13,CTTTGCACGTGAGTAG,0.18 kcal/mol
14,GGGGTCACGTGGATGC,0.09 kcal/mol
15,TTATTCACGTGTAGTA,0.19 kcal/mol
16,GGGGGCACGTGTGCGT,-0.1 kcal/mol
17,GGCTGCACGTGGTGAA,0.14 kcal/mol
18,ATTACCACGTGTTTTG,0.1 kcal/mol
19,TAAGTCACGTGTAATT,0.15 kcal/mol
20,ATAATCACGTGCTTGG,0.04 kcal/mol
21,TTAGGCACGTGGCGTT,-0.16 kcal/mol
22,TGCCGCACGTGTGGTG,-0.13 kcal/mol

# Source: the BET-seq Pho4 binding data (Le et al. 2018)
